Reference: the supplement of paper PMC11543636

Tests used:
Test in all cases: Isolates counted by MIC; Broth microdilution on commercial drug-susceptibility plates, read by two operators.
[1] = system: Mycobacterium tuberculosis lineage 2 on plate UKMYC6 (1563 isolates)
[2] = system: Mycobacterium tuberculosis lineage 4 on plate UKMYC6 (614 isolates)
[3] = system: Mycobacterium tuberculosis lineage 3 on plate UKMYC6 (380 isolates)
[4] = system: Mycobacterium tuberculosis lineage 2 on plate UKMYC5 (530 isolates)
[5] = system: Mycobacterium tuberculosis lineage 4 on plate UKMYC5 (155 isolates)
[6] = system: Mycobacterium tuberculosis lineage 2 on plate UKMYC5 (526 isolates)
[7] = system: Mycobacterium tuberculosis lineage 2 on plate UKMYC6 (1559 isolates)
[8] = system: Mycobacterium tuberculosis lineage 4 on plate UKMYC6 (613 isolates)
[9] = system: Mycobacterium tuberculosis lineage 2 on plate UKMYC6 (1561 isolates)
[10] = system: Mycobacterium tuberculosis lineage 4 on plate UKMYC6 (615 isolates)
[11] = system: Mycobacterium tuberculosis lineage 1 on plate MYCOTB (31 isolates)
[12] = system: Mycobacterium tuberculosis lineage 3 on plate UKMYC6 (383 isolates)
[13] = system: Mycobacterium tuberculosis lineage 2 on plate MYCOTB (3815 isolates)
[14] = system: Mycobacterium tuberculosis lineage 4 on plate MYCOTB (1613 isolates)
[15] = system: Mycobacterium tuberculosis lineage 2 on plate UKMYC6 (1562 isolates)

`CC(C)/N=c1\cc2n(-c3ccc(Cl)cc3)c3ccccc3nc-2cc1Nc1ccc(Cl)cc1` [clofazimine] was tested, and the isolate count ([1]; MIC: 0.06 mg/L) was 580 [S], the isolate count ([1]; MIC: 0.12 mg/L) was 764 [S] and the isolate count ([1]; MIC: 0.25 mg/L) was 113 [S]. The isolate count ([1]; MIC: 0.5 mg/L) was 22 [R], the isolate count ([1]; MIC: 1 mg/L) was 4 [R] and the isolate count ([1]; MIC: >2 mg/L) was 4 [R]. For the same molecule, the isolate count ([1]; MIC: ≤0.03 mg/L) was 75 [S], the isolate count ([1]; MIC: ≤0.06 mg/L) was 1 [S] and the isolate count ([2]; MIC: 0.06 mg/L) was 174 [S]. The isolate count ([2]; MIC: 0.12 mg/L) was 370 [S], the isolate count ([2]; MIC: 0.25 mg/L) was 41 [S] and the isolate count ([2]; MIC: 0.5 mg/L) was 4 [R]. For the same molecule, the isolate count ([2]; MIC: ≤0.03 mg/L) was 25 [S], the isolate count ([3]; MIC: 0.06 mg/L) was 121 [S] and the isolate count ([3]; MIC: 0.12 mg/L) was 229 [S]. For the same molecule, the isolate count ([3]; MIC: 0.25 mg/L) was 29 [S], the isolate count ([3]; MIC: 0.5 mg/L) was 1 [R] and the isolate count ([4]; MIC: 0.06 mg/L) was 5 [S]. For the same molecule, the isolate count ([4]; MIC: 0.12 mg/L) was 148 [S], the isolate count ([4]; MIC: 0.25 mg/L) was 234 [S] and the isolate count ([4]; MIC: 0.5 mg/L) was 54 [R]. The isolate count ([4]; MIC: 1 mg/L) was 7 [R], the isolate count ([4]; MIC: 2 mg/L) was 6 [R] and the isolate count ([4]; MIC: 4 mg/L) was 1 [R]. The isolate count ([4]; MIC: ≤0.06 mg/L) was 75 [S], the isolate count ([5]; MIC: 0.12 mg/L) was 41 [S] and the isolate count ([5]; MIC: 0.25 mg/L) was 53 [S]. The isolate count ([5]; MIC: 0.5 mg/L) was 21 [R], the isolate count ([5]; MIC: 1 mg/L) was 2 [R] and the isolate count ([5]; MIC: 2 mg/L) was 1 [R]. For the same molecule, the isolate count ([5]; MIC: 4 mg/L) was 1 [R] and the isolate count ([5]; MIC: ≤0.06 mg/L) was 36 [S].
`C[C@]1(COc2ccc(N3CCC(Oc4ccc(OC(F)(F)F)cc4)CC3)cc2)Cn2cc([N+](=O)[O-])nc2O1` [delamanid] was tested, and the isolate count ([6]; MIC: 0.015 mg/L) was 2 [S], the isolate count ([6]; MIC: 0.03 mg/L) was 40 [S] and the isolate count ([6]; MIC: 0.06 mg/L) was 12 [S]. The isolate count ([6]; MIC: 0.12 mg/L) was 1 [S], the isolate count ([6]; MIC: >1 mg/L) was 3 [R] and the isolate count ([6]; MIC: ≤0.015 mg/L) was 465 [S]. The isolate count ([6]; MIC: ≥1 mg/L) was 3 [R], the isolate count ([7]; MIC: 0.015 mg/L) was 636 [S] and the isolate count ([7]; MIC: 0.03 mg/L) was 132 [S]. The isolate count ([7]; MIC: 0.06 mg/L) was 9 [S], the isolate count ([7]; MIC: 0.12 mg/L) was 2 [S] and the isolate count ([7]; MIC: 0.25 mg/L) was 3 [R]. For the same molecule, the isolate count ([7]; MIC: >0.5 mg/L) was 24 [R], the isolate count ([7]; MIC: ≤0.008 mg/L) was 740 [S] and the isolate count ([7]; MIC: ≥0.5 mg/L) was 13 [R]. The isolate count ([8]; MIC: 0.015 mg/L) was 255 [S], the isolate count ([8]; MIC: 0.03 mg/L) was 81 [S] and the isolate count ([8]; MIC: 0.06 mg/L) was 10 [S]. For the same molecule, the isolate count ([8]; MIC: 0.12 mg/L) was 1 [S], the isolate count ([8]; MIC: 0.25 mg/L) was 2 [R] and the isolate count ([8]; MIC: >0.5 mg/L) was 3 [R]. The isolate count ([8]; MIC: ≤0.008 mg/L) was 259 [S], the isolate count ([8]; MIC: ≥0.5 mg/L) was 2 [R] and the isolate count ([3]; MIC: 0.015 mg/L) was 215 [S]. For the same molecule, the isolate count ([3]; MIC: 0.03 mg/L) was 53 [S], the isolate count ([3]; MIC: 0.06 mg/L) was 3 [S] and the isolate count ([3]; MIC: ≤0.008 mg/L) was 109 [S]. The isolate count ([5]; MIC: 0.03 mg/L) was 25 [S], the isolate count ([5]; MIC: 0.06 mg/L) was 8 [S] and the isolate count ([5]; MIC: ≤0.015 mg/L) was 122 [S].
With `NC[C@H]1O[C@H](O[C@H]2[C@H](O)[C@@H](O[C@H]3O[C@H](CO)[C@@H](O)[C@H](N)[C@H]3O)[C@H](N)C[C@@H]2N)[C@H](O)[C@@H](O)[C@@H]1O` [kanamycin] the isolate count ([9]; MIC: 2 mg/L) was 963 [S], the isolate count ([9]; MIC: 4 mg/L) was 23 [S] and the isolate count ([9]; MIC: 8 mg/L) was 9 [R]. The isolate count ([9]; MIC: >16 mg/L) was 10 [R], the isolate count ([9]; MIC: ≤1 mg/L) was 554 [S] and the isolate count ([9]; MIC: ≥16 mg/L) was 2 [R]. For the same molecule, the isolate count ([10]; MIC: 2 mg/L) was 386 [S], the isolate count ([10]; MIC: 4 mg/L) was 190 [S] and the isolate count ([10]; MIC: 8 mg/L) was 4 [R]. The isolate count ([10]; MIC: >16 mg/L) was 1 [R], the isolate count ([10]; MIC: ≤1 mg/L) was 33 [S] and the isolate count ([10]; MIC: ≥16 mg/L) was 1 [R]. For the same molecule, the isolate count ([11]; MIC: 1.2 mg/L) was 11 [S], the isolate count ([11]; MIC: 2.5 mg/L) was 17 [S] and the isolate count ([11]; MIC: 20 mg/L) was 2 [R]. For the same molecule, the isolate count ([11]; MIC: ≥40 mg/L) was 1 [R], the isolate count ([12]; MIC: 2 mg/L) was 334 [S] and the isolate count ([12]; MIC: 4 mg/L) was 20 [S]. The isolate count ([12]; MIC: ≤1 mg/L) was 27 [S], the isolate count ([12]; MIC: ≥16 mg/L) was 2 [R] and the isolate count ([13]; MIC: 1.2 mg/L) was 1950 [S]. The isolate count ([13]; MIC: 2 mg/L) was 1 [S], the isolate count ([13]; MIC: 2.5 mg/L) was 1690 [S] and the isolate count ([13]; MIC: 5 mg/L) was 62 [R]. The isolate count ([13]; MIC: 10 mg/L) was 13 [R], the isolate count ([13]; MIC: 20 mg/L) was 2 [R] and the isolate count ([13]; MIC: ≤0.6 mg/L) was 68 [S]. For the same molecule, the isolate count ([13]; MIC: ≥40 mg/L) was 27 [R], the isolate count ([4]; MIC: 2 mg/L) was 409 [S] and the isolate count ([4]; MIC: 4 mg/L) was 43 [S]. The isolate count ([4]; MIC: 8 mg/L) was 1 [R], the isolate count ([4]; MIC: >16 mg/L) was 6 [R] and the isolate count ([4]; MIC: ≤1 mg/L) was 61 [S]. The isolate count ([4]; MIC: ≥16 mg/L) was 10 [R], the isolate count ([14]; MIC: 1.2 mg/L) was 200 [S] and the isolate count ([14]; MIC: 2.5 mg/L) was 1010 [S]. The isolate count ([14]; MIC: 5 mg/L) was 371 [R], the isolate count ([14]; MIC: 10 mg/L) was 3 [R] and the isolate count ([14]; MIC: 20 mg/L) was 1 [R]. The isolate count ([14]; MIC: >40 mg/L) was 2 [R], the isolate count ([14]; MIC: ≤0.6 mg/L) was 17 [S] and the isolate count ([14]; MIC: ≥40 mg/L) was 7 [R]. For the same molecule, the isolate count ([5]; MIC: 2 mg/L) was 52 [S], the isolate count ([5]; MIC: 4 mg/L) was 83 [S] and the isolate count ([5]; MIC: 8 mg/L) was 3 [R]. For the same molecule, the isolate count ([5]; MIC: ≤1 mg/L) was 17 [S].
`C[C@H]1COc2c(N3CCN(C)CC3)c(F)cc3c(=O)c(C(=O)O)cn1c23` [levofloxacin] was tested, and the isolate count ([15]; MIC: 0.25 mg/L) was 559, the isolate count ([15]; MIC: 0.5 mg/L) was 877 and the isolate count ([15]; MIC: 1 mg/L) was 17. The isolate count ([15]; MIC: 2 mg/L) was 23, the isolate count ([15]; MIC: 4 mg/L) was 30 and the isolate count ([15]; MIC: ≤0.12 mg/L) was 19. For the same molecule, the isolate count ([15]; MIC: ≥8 mg/L) was 37, the isolate count ([10]; MIC: 0.25 mg/L) was 167 and the isolate count ([10]; MIC: 0.5 mg/L) was 396. The isolate count ([10]; MIC: 1 mg/L) was 14, the isolate count ([10]; MIC: 2 mg/L) was 3 and the isolate count ([10]; MIC: 4 mg/L) was 9. The isolate count ([10]; MIC: >8 mg/L) was 1, the isolate count ([10]; MIC: ≤0.12 mg/L) was 12 and the isolate count ([10]; MIC: ≥8 mg/L) was 13. It also gave an isolate count ([12]; MIC: 0.25 mg/L) of 158, an isolate count ([12]; MIC: 0.5 mg/L) of 214 and an isolate count ([12]; MIC: 1 mg/L) of 6. For the same molecule, the isolate count ([12]; MIC: ≤0.12 mg/L) was 4, the isolate count ([12]; MIC: ≥8 mg/L) was 1 and the isolate count ([4]; MIC: 0.25 mg/L) was 125. It also gave an isolate count ([4]; MIC: 0.5 mg/L) of 323, an isolate count ([4]; MIC: 1 mg/L) of 16 and an isolate count ([4]; MIC: 2 mg/L) of 16. It also gave an isolate count ([4]; MIC: 4 mg/L) of 26, an isolate count ([4]; MIC: >8 mg/L) of 2 and an isolate count ([4]; MIC: ≤0.12 mg/L) of 4. For the same molecule, the isolate count ([4]; MIC: ≥8 mg/L) was 18, the isolate count ([5]; MIC: 0.25 mg/L) was 31 and the isolate count ([5]; MIC: 0.5 mg/L) was 104. It also gave an isolate count ([5]; MIC: 1 mg/L) of 13, an isolate count ([5]; MIC: 2 mg/L) of 1 and an isolate count ([5]; MIC: 4 mg/L) of 2. The isolate count ([5]; MIC: ≤0.12 mg/L) was 1 and the isolate count ([5]; MIC: ≥8 mg/L) was 3.

Each value is the number of isolates with that result; steps that no isolate showed are left empty. MIC of clinical M. tuberculosis isolates from a national drug-resistance survey, broth microdilution on MYCOTB, UKMYC5 or UKMYC6 plates (ranges differ by plate), read after 10-21 days; higher = less susceptible. Call: the paper's susceptible [S] / resistant [R] by the drug's critical concentration (it differs by plate for some drugs); calls for ofloxacin and levofloxacin are not shown. MYCOTB plates carry ofloxacin; the paper halves those MICs to stand for levofloxacin, and they are doubled back here. The top step of a plate is printed with and without '>' in the source and is marked '>=' when plain; the plain lowest step of rifampicin and kanamycin on MYCOTB is marked '<='. Isolates that the source marks as part of the WHO data set are not listed here.
